Test results published in PubChem BioAssay AID493208 (National Center for Advancing Translational Sciences (NCATS), 2011).
The whole screen tested about 44,000 compounds, of which about 340 (0.77%) were called active. About 5% were inconclusive and are not listed. Calls come from the whole dose curve; as a rule, active = well fitted inhibition curve with a large enough effect; inconclusive = small, poorly fitted or top-dose-only effect; inactive = flat fitted curve, though single readings scatter. The list shows a part of the results.

Experiment: Acumen qHTS Assay for Inhibitors of the mTORC1 Signaling Pathway in MEF (Tsc2-/-, p53-/-) Cells: Sytravon; note: nearly all actives have a fitted effect of over 50% in size;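 for activity change, negative = inhibition: plate controls were DMSO for no effect and rapamycin for full effect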
Details: phospho-rpS6 immunofluorescence/PI, 24 h; series mostly up to 38.3 µM; activity change, negative = inhibition: at the top concentration
Method in brief: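 Tsc2-/-, p53-/- mouse embryonic fibroblasts (empty-vector line) exposed to compound 24 hrs at 37 C, fixed, immunostained for phospho-rpS6 and counterstained with propidium iodide. Acumen laser scanning gives % positive cells from Alexa 488/PI ratio, thresholded using 7.5 nM rapamycin; PI count gives viability.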
Potency is the fitted concentration of half-maximal effect.

| Compound | activity change, negative = inhibition | Potency |
| --- | --- | --- |
| CCOC(=O)c1ccc(NC(=O)CN2C(=O)c3cccnc3Oc3ccc(Cl)cc32)cc1 | inactive: -0.265% | – |
| Cc1ccc(N2CCn3c2nc2c3c(=O)n(CCc3ccccc3)c(=O)n2C)cc1C | inactive: -5.04% | – |
| Cc1ccc(CNC(=O)Cn2nc(C)n3cccc3c2=O)cc1 | inactive: -8.87% | – |
| Cc1ccc(-n2ncc(C(=O)N3CCN(c4cccc(C)c4)C(C)C3)c2C2CCN(C(=O)OC(C)(C)C)CC2)cc1 (configuration not stated) | inactive: -6.46% | – |
| CCOc1ccc(N2CC(c3nc4ccccc4n3Cc3cccc(Cl)c3)CC2=O)cc1 (configuration not stated) | inactive: -0.927% | – |
| Cc1nn(CCCC(=O)NCc2ccc(F)cc2)c(=O)c2c1sc1ccccc12 | inactive: -0.381% | – |
| Cc1c2cnn(CC(=O)N3CCN(c4ccc(F)cc4)CC3)c(=O)c2c(C)n1Cc1ccc(F)cc1 | inactive: 2.63% | – |
| O=C(NCc1ccc(Cl)cc1)c1cc(S(=O)(=O)N2CCCCC2)c[nH]1 | inactive: -1.81% | – |
| CCOc1ccc2nc(NC(=O)c3cc(=O)c4ccc(C)cc4o3)sc2c1 | inactive: -1.51% | – |
| CCN1CCSc2ccc(C(=O)NC(C)c3ccccc3)cc21 (configuration not stated) | inactive: -6.07% | – |
| CCOC(=O)c1cc(-c2ccccc2)n(-c2cccc(C(=O)Nc3ccc(F)c(F)c3)c2)c1C | inactive: -6.48% | – |
| COc1ccccc1CNC(=O)CCn1c(=O)c2ccccc2n(CC(=O)Nc2cccc(Cl)c2)c1=O | inactive: -25.5% | – |
| Cc1c(NC(=O)c2cc(-c3ccc(Cl)c(Cl)c3)on2)c(=O)n(-c2ccccc2)n1C | inactive: -0.744% | – |
| CCOc1ccc(-c2cc(NC(=O)Nc3cccc(C(C)=O)c3)c(C(=O)OC)s2)cc1 | inactive: 2.01% | – |
| CCOc1ccc(S(=O)(=O)NCC(c2ccco2)S(=O)(=O)c2cccs2)cc1 (configuration not stated) | inactive: 0.697% | – |
| CCOC(=O)c1ccc(NC(=O)CCCc2nc(-c3ccccc3Cl)no2)cc1 | inactive: 2.33% | – |
| COc1ccc(OC)c(NC(=O)C2CCCN(S(=O)(=O)c3c(C)nn(C)c3C)C2)c1 (configuration not stated) | inactive: -6.56% | – |
| Cc1ccc(NC(=O)c2cnn3c(C(F)F)cc(-c4ccccc4)nc23)c(C)c1 | inactive: -0.23% | – |
| COc1ccc(N2CCN(C(=O)CCc3c(C)nn(-c4ccc(N5CCCC5)nn4)c3C)CC2)cc1 | inactive: -16% | – |
| Cc1ccc(NC(=O)Nc2nnc(N(CC(C)C)CC(C)C)s2)cc1Cl | inactive: 0.79% | – |
| COc1cccc(N2CCN(C(=O)C(CCSC)NS(=O)(=O)c3ccc4c(c3)oc(=O)n4C)CC2)c1 (configuration not stated) | inactive: -0.482% | – |
| CCc1ccc(CNC(=O)Cc2ccc(NC(=O)N3CCSc4ncccc43)cc2)cc1 | inactive: -1.31% | – |
| CCOC(=O)CSc1nc2ccc(NC(=O)c3ccc(C)cc3)cc2s1 | inactive: -3.74% | – |
| O=C(O)c1ccc2c(c1)ncn2-c1ccc(F)c(F)c1 | inactive: -8.75% | – |

| Compound | activity change, negative = inhibition | Potency |
| --- | --- | --- |
| COc1ccc(NC(=O)C2=C(C)Nc3ncnn3C2c2ccc(O)cc2)cc1 (configuration not stated) | inactive: -13.5% | – |
| COc1ccc(OC)c(NC(=O)c2cc3c(=O)oc4ccccc4c3s2)c1 | inactive: 2.67% | – |
| Cc1cc2c(cc1S(=O)(=O)NCc1ccccc1Cl)OCCN2C | inactive: 0% | – |
| CCN(CC)c1nn2c(=O)c(C(=O)NCCc3ccccc3)cnc2s1 | inactive: 0.781% | – |
| Cc1ccc(C)c(NC(=O)c2ccc3c(O)c(S(=O)(=O)c4ccc(Cl)cc4)c(=O)[nH]c3c2)c1 | inactive: 4.32% | – |
| CCCCSCCCNC(=O)CN1C(=O)c2cccnc2Oc2ccc(Cl)cc21 | inactive: 0.515% | – |
| Fc1ccc(-c2noc3ncnc(N4CCN(c5ccccc5)CC4)c23)cc1 | inactive: 5.94% | – |
| COc1ccc(S(=O)(=O)N2CCN(c3ccccc3F)CC2)cc1-c1noc(C)n1 | inactive: 0.953% | – |
| O=C(NCc1ccc(F)cc1)c1ccc2c(Cl)c3c(nc2c1)CCCC3 | inactive: -6.39% | – |
| CCOC(=O)c1ccccc1NC(=O)C(=O)Nc1ccc2nc3n(c(=O)c2c1)CCCCC3 | inactive: -11% | – |
| CC(=O)N1CCOc2cc(S(=O)(=O)Nc3cccc(C(F)(F)F)c3)c(Cl)cc21 | inactive: 0% | – |
| Cc1cn2c(=O)cc(COc3cccc(NC(=O)c4ccccc4C)c3)nc2s1 | inactive: -1.41% | – |
| COc1ccc(NC(=O)C2CCN(S(=O)(=O)c3ccc4[nH]c(=O)ccc4c3)CC2)c(OC)c1 | inactive: 0.138% | – |
| CCOC(=O)c1[nH]c(C)c(CCC(=O)NCc2ccccc2)c1C | inactive: 7.73% | – |
| COc1ccc(OC)c(NC(=O)Cc2coc3ccc(C(C)C)cc23)c1 | inactive: -7.18% | – |
| CCOC(=O)c1c(-c2ccccc2)oc2ccc(N(C(C)=O)S(=O)(=O)c3cc(C)ccc3C)cc12 | inactive: -3.26% | – |
| CCOc1ccc(CNC(=O)C2CCN(c3nnc(-n4cccc4CNc4ccc(C)cc4)s3)CC2)cc1OC | inactive: -0.246% | – |
| CCc1c(C)nc(SCC(=O)N2CCN(c3ccccc3OC)CC2)[nH]c1=O | inactive: -1.55% | – |
| Cc1ccc(O)c(C(CC(=O)NCC2(c3ccccc3)CCCC2)c2ccccc2)c1 (configuration not stated) | – | active: 18.5 µM |
| CCOC(=O)c1ccccc1NC(=O)Cn1cc(C(=O)c2cccc(OC)c2)c(=O)c2ccc(C)nc21 | inactive: 1.72% | – |
| CCOC(=O)c1c(C)[nH]c(CCC(=O)NCCCN2CCN(c3ccc(F)cc3)CC2)c1C | inactive: 10.1% | – |
| Cc1cccc(-c2nc(S(=O)(=O)c3ccc(F)cc3)c(N3CCN(c4ccccc4)CC3)o2)c1 | inactive: -0.0713% | – |
| CC(C)c1ccc(NC(=O)c2cc3c(s2)-c2ccccc2SC3)cc1 | inactive: -1.13% | – |
